T1: CD86-Fc (human CD86 extracellular domain fused to human IgG1) (human, UniProt P42081 24-247)
T1 construct: extracellular domain; Expressed in insect cells with a gp67 secretion signal; No linker between CD86 and IgG1 is described; also called recombinant human CD86-Fc; recombinant bivalent CD86-Fc; not shown: human IgG1, UniProt P01857
T1 sequence (looked up): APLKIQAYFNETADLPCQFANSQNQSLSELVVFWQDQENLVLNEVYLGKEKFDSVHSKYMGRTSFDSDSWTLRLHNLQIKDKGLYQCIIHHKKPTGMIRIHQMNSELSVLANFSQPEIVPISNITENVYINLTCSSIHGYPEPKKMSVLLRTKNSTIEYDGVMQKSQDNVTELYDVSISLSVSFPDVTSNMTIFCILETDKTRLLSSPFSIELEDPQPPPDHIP

B1: CTLA4-Fc variant E31S (Fc fusion)
chain: not shown
notes: Whole fusion (CTLA4 extracellular domain, MMP9 linker, IgG1 Fc) with E31S; also called E31S CTLA-4
B2: CTLA4-Fc variant E31S R33E T51H (Fc fusion)
chain: MHVAQPAVVLASSRGIASFVCEYASPGKATSVEVTVLRQADSQVTEVCAAHYMMGNELTFLDDSICTGTSSGNQVNLTIQGLRAMDTGLYICKVELMYPPPYYLGIGNGTQIYVIDPEPCPDSDGSRSGGTSGGGSVPLSLYSGSTSGSGKSSEGSGQ[skipping human IgG1 Fc and a few adjoining residues]
notes: Whole fusion (CTLA4 extracellular domain, MMP9 linker, IgG1 Fc) with E31S, R33E and T51H; also called E31S, R33E, T51H CTLA-4
B3: CTLA4-Fc variant E31A R33A (Fc fusion)
chain: MHVAQPAVVLASSRGIASFVCEYASPGKATAVAVTVLRQADSQVTEVCAATYMMGNELTFLDDSICTGTSSGNQVNLTIQGLRAMDTGLYICKVELMYPPPYYLGIGNGTQIYVIDPEPCPDSDGSRSGGTSGGGSVPLSLYSGSTSGSGKSSEGSGQ[skipping human IgG1 Fc and a few adjoining residues]
notes: Whole fusion (CTLA4 extracellular domain, MMP9 linker, IgG1 Fc) with E31A and R33A; also called E31A and R33A CTLA-4

Molecular target: T1, CD86-Fc (human CD86 extracellular …)
Test: analytical SEC (relative A230) of an equimolar mixture with CD86-Fc

binding result | Binder
binds | B1
no binding | B2
binds | B3

— US20200325212A1 (CITY OF HOPE, published 2020)
